The text below walks through data of the supplement of paper PMC10670038.

Structures can show the parent of a compound that is named as a salt. ± gives the standard deviation of the averaged measurements. The full ranking holds about 2,000 compounds; the median of “relative cell viability vs DMSO, compound + 0.2 uM CuET” is about 1, and the lowest 2% start at about 0.25. Some of the results follow.

The test system of the experiment is TE10. Description: relative cell viability vs DMSO, compound + 0.2 uM CuET (fraction); TE10 is an esophageal squamous carcinoma line; higher = less cytotoxic. The settings on record: 2 µM; co-treatment: CuET (bis(diethyldithiocarbamate)copper) 0.2 uM; 48 h. The procedure: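 TE10 ESCC cells (1,000/well, 384-well plates) were treated with Selleck bioactive library compounds at 2 uM combined with 0.2 uM CuET (copper diethyldithiocarbamate) for 48 h. Viability was read by CellTiter-Glo and expressed relative to DMSO wells. Two technical replicates (A, B).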
`Cn1nnc(-c2ccc3c(c2)[nH]c2nc(Cc4ccccc4)nc(NC4CCC(N)CC4)c23)n1` (stereo not drawn): the relative cell viability turned out to be 1.18 ± 0.092.

As for `CN(C)Cc1cccc(N=C(c2ccccc2)c2c(O)[nH]c3cc(C(=O)N(C)C)ccc23)c1`, the relative cell viability was found to be 1.1 ± 0.2.

For `CC[C@H]1OC(=O)C[C@@H](O)[C@H](C)[C@@H](O[C@@H]2O[C@H](C)[C@@H](O)[C@H](N(C)C)[C@H]2O)[C@@H](CCN2C[C@H](C)C[C@H](C)C2)C[C@@H](C)C(=O)/C=C/C(C)=C/[C@@H]1CO[C@@H]1O[C@H](C)[C@@H](O)[C@@H](OC)[C@H]1OC` [Tilmicosin], the relative cell viability is 1.29 ± 0.055.

In the case of `CCc1c(O)cc(O)c(C(=O)c2ccc(OCCN3CCOCC3)c(OC)c2)c1CC(=O)N(CCOC)CCOC`, the relative cell viability was determined as 0.613 ± 0.011.

In the case of `CNCCCC12CCC(c3ccccc31)c1ccccc12` [Maprotiline HCl], the relative cell viability was 1.14 ± 0.1.

Turning to `Cc1coc2c1C(=O)C(=O)c1c-2ccc2c1CCCC2(C)C` [Tanshinone IIA], the relative cell viability came to 0.283 ± 0.084.

`OC(c1cc(C(F)(F)F)nc2c(C(F)(F)F)cccc12)C1CCCCN1` (stereo not drawn) [Mefloquine HCl]: the relative cell viability amounted to 0.901 ± 0.04.

With `O=C(c1ccc(/C=C/c2n[nH]c3ccccc23)cc1)N1CCNCC1`, the relative cell viability worked out at 0.9262 ± 0.0063.

With `C/C(=C\C(=O)Nc1ccccc1C(=O)O)c1ccc2ccccc2c1`, the relative cell viability turned out to be 1.14 ± 0.058.

For the molecule `Cc1ccc(-n2sc(=O)n(Cc3ccc(F)cc3)c2=O)cc1`, the relative cell viability amounted to 0.733 ± 0.23.

As to `O=C(NCCN1CCOCC1)c1ccc(Cl)cc1`, the relative cell viability turned out to be 1.39 ± 0.082.

Consider `Cc1cc(Cl)ccc1OCCCC(=O)NO` [Droxinostat], for which the relative cell viability is 0.997 ± 0.063.

Consider `CN(C)CCOc1ccc(-c2nc(-c3ccncc3)c(-c3ccc4c(c3)CC/C4=N\O)[nH]2)cc1`, for which the relative cell viability stood at 1.2261 ± 0.0011.

In the case of `C[C@H](Cc1cc2c(c(C(N)=O)c1)N(CCCO)CC2)NCCOc1ccccc1OCC(F)(F)F` [Silodosin], the relative cell viability came to 1.09 ± 0.15.

On to `O=C(O)C1=CO[C@@H](O[C@@H]2O[C@H](CO)[C@@H](O)[C@H](O)[C@H]2O)[C@@H]2C(CO)=CC[C@H]12` [Geniposidic acid], for which the relative cell viability amounted to 0.949 ± 0.015.

Turning to `O=C(Oc1ccccc1C(=O)O)c1ccccc1O` [Sasapyrine], the relative cell viability is 1.08 ± 0.022.

Turning to `COc1c(C)c2c(c(O)c1C/C=C(\C)CCC(=O)O)C(=O)OC2` [Mycophenolic acid], the relative cell viability turned out to be 0.825 ± 0.051.

Regarding `NS(=O)(=O)c1cc(Cl)c(Cl)c(S(N)(=O)=O)c1` [Dichlorphenamide], the relative cell viability was found to be 1.02 ± 0.15.

For the molecule `CS(=O)(=O)c1ccc(-c2cnc(N)c(C(=O)Nc3ccccc3)n2)cc1`, the relative cell viability came out at 0.761 ± 0.07.

`O=c1c(-c2ccc(O)cc2)coc2cc(O)ccc12` [Daidzein]: the relative cell viability came to 0.808 ± 0.11.

With `O=C(O)CCCCC(CCSCc1ccccc1)SCc1ccccc1` (stereo not drawn), the relative cell viability was 0.975 ± 0.14.

`CC1(C)CC[C@]2(C(=O)O)CC[C@]3(C)C(=CC[C@@H]4[C@@]5(C)CC[C@H](O)C(C)(C)[C@@H]5CC[C@]43C)[C@@H]2C1` [Oleanolic Acid]: the relative cell viability is 1.17 ± 0.044.

As for `CC(C)(C)c1nc(-c2cccc(NS(=O)(=O)c3c(F)cccc3F)c2F)c(-c2ccnc(N)n2)s1`, the relative cell viability is 0.78 ± 0.37.

Regarding `C[C@H]1O[C@@H](n2cc(F)c(=O)[nH]c2=O)[C@H](O)[C@@H]1O` [Doxifluridine], the relative cell viability came to 1.08 ± 0.037.

Regarding `Cc1c(C(=O)Nc2ccc(N3CCC(N4CCOCC4)CC3)c(C#N)c2)cnn1-c1ccc(Cl)cc1`, the relative cell viability stood at 0.874 ± 0.062.

For the molecule `Nc1c(CC(=O)O)cccc1C(=O)c1ccc(Br)cc1` [Bromfenac Sodium], the relative cell viability was 1.14 ± 0.041.

As to `Cc1cc(C)c2c(c1)[C@@H](N(Cc1cc(C(F)(F)F)cc(C(F)(F)F)c1)c1nnn(C)n1)CCCN2C[C@H]1CC[C@H](C(=O)O)CC1`, the relative cell viability was 1.03 ± 0.038.

For the molecule `CNC(=O)c1ccccc1Nc1nc(Nc2ccc(N3CCOCC3)cc2OC)ncc1Cl`, the relative cell viability is 0.942 ± 0.2.

For `CC1=C(C(=O)Nc2cc3cn[nH]c3cc2F)C(c2ccc(C(F)(F)F)cc2)CC(=O)N1` (stereo not drawn), the relative cell viability worked out at 1.11 ± 0.021.

Take `CCOC(=O)c1ncn2c1CN(C)C(=O)c1cc(F)ccc1-2` [Flumazenil]: the relative cell viability turned out to be 1.18 ± 0.21.

In the case of `C=C1CC2(O)OC3(CC2C(C)C)C(C)CCC13` (stereo not drawn) [Curcumol], the relative cell viability stood at 0.838 ± 0.028.

In the case of `COC(=O)N[C@H](C(=O)N1CCC[C@H]1c1ncc(-c2ccc(-c3ccc(-c4cnc([C@@H]5CCCN5C(=O)[C@@H](NC(=O)OC)C(C)C)[nH]4)cc3)cc2)[nH]1)C(C)C`, the relative cell viability worked out at 0.863 ± 0.086.

Regarding `CCCCN(Cc1ccc(C(=O)NO)cc1)C(=O)Nc1ccccc1` [Nexturastat A], the relative cell viability was 0.837 ± 0.056.

As for `NCCCC[C@@H]1NC(=O)[C@@H](Cc2ccccc2)NC(=O)[C@H](CC(=O)O)NC(=O)CNC(=O)[C@H](CCCN=C(N)N)NC1=O` [Cyclo (-RGDfK)], the relative cell viability is 1.21 ± 0.043.

Turning to `c1cc(-c2cnn3cc(-c4ccc(N5CCNCC5)cc4)cnc23)c2cccnc2c1`, the relative cell viability came out at 0.182 ± 0.0055.

As for `COc1ccc(/C=C\c2cc(OC)c(OC)c(OC)c2)cc1O` [Combretastatin A4], the relative cell viability amounted to 0.883 ± 0.051.

Regarding `CCCC1O[C@@H]2C[C@H]3[C@@H]4CCC5=CC(=O)C=C[C@]5(C)[C@H]4[C@@H](O)C[C@]3(C)[C@]2(C(=O)CO)O1` (stereo partly drawn) [Budesonide], the relative cell viability stood at 1.23 ± 0.077.

With `CCOC(=O)[C@H](CCc1ccccc1)N[C@H]1CCCN2CCC[C@@H](C(=O)O)N2C1=O` [Cilazapril Monohydrate], the relative cell viability was determined as 1.05 ± 0.041.

On to `COc1cc(C(C)=O)ccc1OCCCN1CCC(c2noc3cc(F)ccc23)CC1` [Iloperidone], for which the relative cell viability worked out at 1.06 ± 0.038.

Regarding `COc1ccc(C(=O)CC(=O)c2ccc(C(C)(C)C)cc2)cc1` [Avobenzone], the relative cell viability was determined as 0.972 ± 0.046.

Take `CC(=O)OCC(=O)[C@@]1(O)[C@H](C)C[C@H]2[C@@H]3CCC4=CC(=O)C=C[C@]4(C)[C@@]3(F)[C@@H](O)C[C@@]21C` [Dexamethasone Acetate]: the relative cell viability is 1.13 ± 0.098.

As for `COc1c(N2C[C@@H]3CCCN[C@@H]3C2)c(F)cc2c(=O)c(C(=O)O)cn(C3CC3)c12` [Moxifloxacin HCl], the relative cell viability was 1.28 ± 0.023.

For `NC1CC1c1ccc(-c2cccc(O)c2)cc1` (stereo not drawn), the relative cell viability is 1.13 ± 0.036.

Regarding `COc1ccc2[nH]c([S@@+]([O-])Cc3ncc(C)c(OC)c3C)nc2c1` [Esomeprazole Sodium], the relative cell viability turned out to be 1.1 ± 0.048.

As to `COc1ccc2[nH]c([S@@+]([O-])Cc3ncc(C)c(OC)c3C)nc2c1` [Esomeprazole Magnesium], the relative cell viability amounted to 0.991 ± 0.073.

On to `CS(=O)(=O)N1CCN(Cc2cc3nc(-c4cccc5[nH]ncc45)nc(N4CCOCC4)c3s2)CC1`, for which the relative cell viability is 0.68 ± 0.0074.

In the case of `CC(C)NCC(O)c1ccc(O)c(O)c1` (stereo not drawn) [Isoprenaline HCl], the relative cell viability was determined as 1.19 ± 0.032.

Take `Nc1nc2c(ncn2COCCO)c(=O)[nH]1` [Aciclovir]: the relative cell viability stood at 1.08 ± 0.072.

Turning to `CC#CC(=O)Nc1ccc2ncnc(Nc3cccc(Br)c3)c2c1`, the relative cell viability was 0.546 ± 0.034.

On to `O=S(=O)(c1ccccc1)N(CC(F)(F)F)c1ccc(C(O)(C(F)(F)F)C(F)(F)F)cc1`, for which the relative cell viability is 1 ± 0.084.

As to `C#C[C@]1(O)CC[C@H]2[C@@H]3CCc4cc(O)ccc4[C@H]3CC[C@@]21C` [Ethinyl Estradiol], the relative cell viability came out at 1.06 ± 0.074.

Consider `COc1cc(F)c(F)c(Nc2ccc(I)cc2F)c1NS(=O)(=O)C1(C[C@H](O)CO)CC1` [Refametinib (RDEA119, Bay 86-9766)], for which the relative cell viability came out at 0.952 ± 0.1.

As to `CCOc1cc(CC(=O)N[C@@H](CC(C)C)c2ccccc2N2CCCCC2)ccc1C(=O)O` [Repaglinide], the relative cell viability was found to be 1.15 ± 0.065.

As to `O=C(O)C(Cc1c[nH]c2ccccc12)N1C(=O)c2ccccc2C1=O` (stereo not drawn), the relative cell viability is 1.02 ± 0.12.

Turning to `CCOC(=O)C1=C(C)NC(C)=C(C(=O)OCC)C1c1ccccc1/C=C/C(=O)OC(C)(C)C` [Lacidipine], the relative cell viability turned out to be 0.785 ± 0.011.

With `COc1cc2/c(=N/c3ccc(Br)cc3F)nc[nH]c2cc1OCC1CCN(C)CC1` [Vandetanib (ZD6474)], the relative cell viability worked out at 1.07 ± 0.026.

Consider `CCN(CC)C(=S)SSC(=S)N(CC)CC` [Disulfiram], for which the relative cell viability amounted to 0.0338 ± 0.0054.

With `Cc1cc(OCCCS(C)(=O)=O)cc(C)c1-c1cccc(COc2ccc3c(c2)OC[C@H]3CC(=O)O)c1`, the relative cell viability was determined as 1.1 ± 0.087.

`C=C[C@@]1(C)CC(=O)[C@]2(O)[C@@]3(C)[C@@H](O)CCC(C)(C)[C@@H]3[C@H](O)[C@H](OC(C)=O)[C@@]2(C)O1` [Forskolin]: the relative cell viability turned out to be 1.18 ± 0.025.

Turning to `O=C(CCCCCN1C(=O)c2cccc3cccc(c23)C1=O)NO` [Scriptaid], the relative cell viability was determined as 0.331 ± 0.039.

With `COc1ccc2c(c1)c(C1=C(c3c[nH]c4ccccc34)C(=O)NC1=O)cn2CCCN(C)C`, the relative cell viability was determined as 1.02 ± 0.045.

For `O=c1cc(-c2ccccc2)oc2cc(O)cc(O)c12` [Chrysin], the relative cell viability is 1.03 ± 0.013.

As for `COC(=O)C1=C(C)NC(C)=C(C(=O)OC2CCCN(Cc3ccccc3)C2)C1c1cccc([N+](=O)[O-])c1` (stereo not drawn) [Benidipine HCl], the relative cell viability came out at 0.92 ± 0.033.

With `CCNC(=O)CCC/C=C\C[C@@H]1[C@@H](/C=C/[C@@H](O)CCc2ccccc2)[C@H](O)C[C@@H]1O` [Bimatoprost], the relative cell viability was 1.4 ± 0.37.

`COc1ccc(S(=O)(=O)Nc2cccnc2Nc2ccc(O)cc2)cc1`: the relative cell viability was found to be 0.856 ± 0.11.

Regarding `O=C(Nc1cc2cc[nH]c2cn1)c1ccccc1`, the relative cell viability came to 0.3986 ± 0.0004.

For the molecule `O=C1NCCc2[nH]c(-c3ccncc3)cc21`, the relative cell viability turned out to be 1.07 ± 0.1.

As for `O=C(/C=C/c1ccc(O)c(O)c1)c1ccc(O)cc1O` [Butein], the relative cell viability came out at 0.864 ± 0.04.

Take `O=C(CCCCCCC(=O)Nc1ccccc1)NO` [Vorinostat (SAHA, MK0683)]: the relative cell viability was found to be 0.473 ± 0.055.

On to `Nc1nonc1C(=Nc1ccc(F)c(Cl)c1)NO`, for which the relative cell viability is 1.15 ± 0.14.

With `NCCCCCNCC12CC3CC(CC(C3)C1)C2` [IEM 1754 dihydrobroMide], the relative cell viability is 1.35 ± 0.15.

With `CC1(C)O[C@@H]2C[C@H]3[C@@H]4CCC5=CC(=O)C=C[C@]5(C)[C@H]4[C@@H](O)C[C@]3(C)[C@]2(C(=O)CO)O1` [Desonide], the relative cell viability amounted to 1.08 ± 0.02.

On to `O=C(O)c1ccc2c(c1)nc(Nc1cccc(Cl)c1)c1ccncc12` [CX-4945 (Silmitasertib)], for which the relative cell viability turned out to be 1.05 ± 0.025.

Regarding `O=C1CC(=O)c2c(Cl)c(Cl)c(Cl)c(Cl)c21`, the relative cell viability was 1.08 ± 0.056.

As for `CCOC(=O)n1ccn(C)c1=S` [Carbimazole], the relative cell viability stood at 1.01 ± 0.12.

With `COc1cc(N2CCC(N)CC2)ccc1Nc1ncc(Cl)c(-c2c[nH]c3ccccc23)n1`, the relative cell viability came to 0.526 ± 0.02.

In the case of `Nc1[nH]nc2nnc(-c3c(-c4ccccc4)nn4ccccc34)cc12`, the relative cell viability came to 1.07 ± 0.051.

For `Cc1cc(NS(=O)(=O)c2ccc(N)cc2)no1` [Sulfamethoxazole], the relative cell viability came to 1.046 ± 0.0036.
